Measured values from PMC8137956, “Orphan GPR116 mediates the insulin sensitizing effects of the hepatokine FNDC4 in adipose tissue” (Nature Communications, 2021).
Results are given in words; binding and its absence hold for the method and conditions named. Some results given as binding are weak or reduced against the parent protein; the word gives no strength. Tags and fused reporters may be left off the sequences shown.

By UniProt entry, the sequences of proteins in these tests, tags left out. Residues count along the entry.
UniProt Q13349, residues 18-1161: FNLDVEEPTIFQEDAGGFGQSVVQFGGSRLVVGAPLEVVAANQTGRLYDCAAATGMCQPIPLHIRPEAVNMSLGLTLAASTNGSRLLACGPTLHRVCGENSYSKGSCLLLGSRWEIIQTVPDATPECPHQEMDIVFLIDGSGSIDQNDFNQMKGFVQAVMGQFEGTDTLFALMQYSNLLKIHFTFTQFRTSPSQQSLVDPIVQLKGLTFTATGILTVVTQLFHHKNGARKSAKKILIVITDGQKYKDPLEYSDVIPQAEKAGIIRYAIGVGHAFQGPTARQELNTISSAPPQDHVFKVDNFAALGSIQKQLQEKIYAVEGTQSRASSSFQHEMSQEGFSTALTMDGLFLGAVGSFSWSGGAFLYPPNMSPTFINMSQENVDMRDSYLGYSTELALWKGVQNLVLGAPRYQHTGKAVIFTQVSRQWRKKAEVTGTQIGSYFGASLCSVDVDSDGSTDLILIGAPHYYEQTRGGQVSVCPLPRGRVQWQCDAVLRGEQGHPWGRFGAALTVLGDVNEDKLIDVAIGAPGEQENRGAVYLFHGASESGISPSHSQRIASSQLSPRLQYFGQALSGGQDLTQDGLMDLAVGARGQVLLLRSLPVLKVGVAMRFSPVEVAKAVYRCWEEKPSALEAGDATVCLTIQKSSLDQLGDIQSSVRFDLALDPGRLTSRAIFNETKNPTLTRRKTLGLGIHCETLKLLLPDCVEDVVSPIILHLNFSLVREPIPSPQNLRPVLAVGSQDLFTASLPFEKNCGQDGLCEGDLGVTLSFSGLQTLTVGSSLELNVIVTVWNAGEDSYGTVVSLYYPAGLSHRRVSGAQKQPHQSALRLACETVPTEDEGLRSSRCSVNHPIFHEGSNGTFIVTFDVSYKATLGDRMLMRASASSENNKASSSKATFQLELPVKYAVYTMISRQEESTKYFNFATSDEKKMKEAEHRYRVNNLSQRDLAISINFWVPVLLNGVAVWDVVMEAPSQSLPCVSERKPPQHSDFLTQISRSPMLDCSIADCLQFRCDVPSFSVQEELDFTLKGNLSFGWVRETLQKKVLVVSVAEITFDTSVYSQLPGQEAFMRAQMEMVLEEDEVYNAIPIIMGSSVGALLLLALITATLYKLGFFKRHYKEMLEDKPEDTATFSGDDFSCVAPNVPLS

T1: human GPR116 (G protein-coupled receptor 116), transiently overexpressed (human) (UniProt Q8IZF2)
T1 sequence: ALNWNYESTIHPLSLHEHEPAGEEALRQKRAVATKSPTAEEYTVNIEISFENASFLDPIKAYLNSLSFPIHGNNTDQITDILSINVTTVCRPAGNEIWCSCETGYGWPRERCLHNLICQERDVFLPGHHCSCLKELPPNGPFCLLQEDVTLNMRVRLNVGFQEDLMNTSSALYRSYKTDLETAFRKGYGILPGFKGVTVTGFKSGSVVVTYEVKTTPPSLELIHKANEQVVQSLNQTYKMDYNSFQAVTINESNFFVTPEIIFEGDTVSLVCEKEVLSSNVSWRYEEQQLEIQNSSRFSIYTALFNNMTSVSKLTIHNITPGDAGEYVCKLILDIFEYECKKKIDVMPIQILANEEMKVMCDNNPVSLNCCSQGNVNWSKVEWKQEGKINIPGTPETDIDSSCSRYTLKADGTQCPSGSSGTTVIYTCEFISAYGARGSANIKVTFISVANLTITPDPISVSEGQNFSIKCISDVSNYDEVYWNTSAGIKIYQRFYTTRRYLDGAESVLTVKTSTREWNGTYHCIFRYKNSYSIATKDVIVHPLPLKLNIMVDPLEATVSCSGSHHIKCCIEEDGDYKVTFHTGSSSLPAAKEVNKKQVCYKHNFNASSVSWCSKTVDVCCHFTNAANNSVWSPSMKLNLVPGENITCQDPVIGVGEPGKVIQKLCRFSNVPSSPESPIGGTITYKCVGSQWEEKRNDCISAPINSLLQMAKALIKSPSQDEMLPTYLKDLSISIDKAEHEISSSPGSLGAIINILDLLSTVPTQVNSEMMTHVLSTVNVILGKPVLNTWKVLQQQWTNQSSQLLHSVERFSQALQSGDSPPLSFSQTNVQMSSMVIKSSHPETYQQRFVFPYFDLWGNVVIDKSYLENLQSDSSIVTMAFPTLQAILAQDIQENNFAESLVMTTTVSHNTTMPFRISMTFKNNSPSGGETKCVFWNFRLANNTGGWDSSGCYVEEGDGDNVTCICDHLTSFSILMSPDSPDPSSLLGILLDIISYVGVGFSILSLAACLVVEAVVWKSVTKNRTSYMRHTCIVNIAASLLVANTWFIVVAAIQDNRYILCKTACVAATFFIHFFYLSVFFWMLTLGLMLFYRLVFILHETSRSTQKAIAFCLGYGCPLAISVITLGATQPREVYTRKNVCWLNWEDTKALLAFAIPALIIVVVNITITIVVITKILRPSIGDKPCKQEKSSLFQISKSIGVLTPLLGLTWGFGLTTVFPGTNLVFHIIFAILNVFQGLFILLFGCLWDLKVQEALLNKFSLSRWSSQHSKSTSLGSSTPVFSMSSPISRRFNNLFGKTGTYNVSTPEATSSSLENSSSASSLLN

T2: human RXFP1 (relaxin/insulin-like family peptide receptor 1), transiently overexpressed (human) (UniProt Q9HBX9)
T2 sequence: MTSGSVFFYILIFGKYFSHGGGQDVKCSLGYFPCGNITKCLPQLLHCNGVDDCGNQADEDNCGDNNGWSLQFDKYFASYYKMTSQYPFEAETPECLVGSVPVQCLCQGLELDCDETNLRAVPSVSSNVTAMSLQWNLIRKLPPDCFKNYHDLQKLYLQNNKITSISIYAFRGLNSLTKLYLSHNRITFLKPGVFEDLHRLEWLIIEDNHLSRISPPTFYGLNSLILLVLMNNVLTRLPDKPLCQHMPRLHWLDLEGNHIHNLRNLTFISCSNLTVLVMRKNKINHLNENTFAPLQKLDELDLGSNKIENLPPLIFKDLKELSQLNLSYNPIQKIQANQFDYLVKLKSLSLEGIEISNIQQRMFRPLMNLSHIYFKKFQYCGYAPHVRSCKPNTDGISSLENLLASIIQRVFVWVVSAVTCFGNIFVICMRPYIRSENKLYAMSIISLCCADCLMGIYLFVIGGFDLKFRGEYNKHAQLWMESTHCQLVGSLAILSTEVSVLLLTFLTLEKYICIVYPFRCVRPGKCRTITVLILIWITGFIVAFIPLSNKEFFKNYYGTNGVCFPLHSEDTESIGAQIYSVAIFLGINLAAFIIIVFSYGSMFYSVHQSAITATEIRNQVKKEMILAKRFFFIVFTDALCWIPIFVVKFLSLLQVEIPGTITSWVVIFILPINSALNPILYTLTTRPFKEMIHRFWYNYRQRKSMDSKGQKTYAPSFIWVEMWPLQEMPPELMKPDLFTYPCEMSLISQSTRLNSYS

T3: human GPR116 with C-terminal fused FLAG, stably overexpressed (human) (UniProt Q8IZF2)
T3 sequence: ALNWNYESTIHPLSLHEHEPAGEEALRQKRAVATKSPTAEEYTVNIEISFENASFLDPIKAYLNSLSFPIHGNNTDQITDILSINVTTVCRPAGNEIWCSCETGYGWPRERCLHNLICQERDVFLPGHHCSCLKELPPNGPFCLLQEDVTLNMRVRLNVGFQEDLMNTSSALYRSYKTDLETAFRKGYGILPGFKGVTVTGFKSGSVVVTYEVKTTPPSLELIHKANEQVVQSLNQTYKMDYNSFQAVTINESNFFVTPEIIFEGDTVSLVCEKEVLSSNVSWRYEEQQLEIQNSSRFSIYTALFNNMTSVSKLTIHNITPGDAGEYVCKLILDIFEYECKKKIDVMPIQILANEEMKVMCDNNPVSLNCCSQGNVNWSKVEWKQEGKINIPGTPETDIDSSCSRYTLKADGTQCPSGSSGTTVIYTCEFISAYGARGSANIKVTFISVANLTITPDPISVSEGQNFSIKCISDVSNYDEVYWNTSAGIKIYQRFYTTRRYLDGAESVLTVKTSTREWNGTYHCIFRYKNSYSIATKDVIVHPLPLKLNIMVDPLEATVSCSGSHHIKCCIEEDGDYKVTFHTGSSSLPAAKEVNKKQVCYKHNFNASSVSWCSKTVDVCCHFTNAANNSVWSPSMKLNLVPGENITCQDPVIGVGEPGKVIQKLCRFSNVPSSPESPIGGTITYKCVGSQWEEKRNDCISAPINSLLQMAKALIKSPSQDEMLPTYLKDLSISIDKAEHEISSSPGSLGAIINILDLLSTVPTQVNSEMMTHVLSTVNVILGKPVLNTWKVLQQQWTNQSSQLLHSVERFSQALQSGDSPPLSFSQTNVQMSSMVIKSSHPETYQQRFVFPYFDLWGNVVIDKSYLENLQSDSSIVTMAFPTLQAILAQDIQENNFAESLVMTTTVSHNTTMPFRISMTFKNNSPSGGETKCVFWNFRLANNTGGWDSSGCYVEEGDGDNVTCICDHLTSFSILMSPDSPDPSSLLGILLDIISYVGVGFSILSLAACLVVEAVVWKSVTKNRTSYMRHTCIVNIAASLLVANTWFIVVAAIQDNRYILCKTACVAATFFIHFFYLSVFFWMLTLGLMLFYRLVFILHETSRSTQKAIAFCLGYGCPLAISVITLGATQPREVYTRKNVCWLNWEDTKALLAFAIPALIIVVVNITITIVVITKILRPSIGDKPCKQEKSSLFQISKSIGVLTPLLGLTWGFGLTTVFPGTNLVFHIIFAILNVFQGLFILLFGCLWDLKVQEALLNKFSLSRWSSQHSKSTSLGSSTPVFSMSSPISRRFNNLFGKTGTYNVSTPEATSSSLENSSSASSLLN


How the values were obtained:
[1] = molecular target: human ITGAD (integrin subunit alpha D), transiently overexpressed (human) (UniProt Q13349); assay: flow cytometry on cells; live HEK293A cells 48 h after transient transfection; FcsFNDC4 100 nM, 40 min at 4 °C in PBS with 3% FBS; detected with anti-human IgG-PE; fold change of MFI per 10,000 cells against mock transfection; only the binder purified
[2] = molecular target: T1, human GPR116 (G protein-coupled receptor 116), transiently overexpressed (human); assay: as above
[3] = molecular target: T2, human RXFP1 (relaxin/insulin-like family peptide receptor 1), transiently overexpressed (human); assay: as above
[4] = molecular target: T3, human GPR116 with C-terminal fused FLAG, stably overexpressed (human); assay: flow cytometry on cells; HEK293T cells stably overexpressing human GPR116, 30 min with antiGPR116 (ab111169) or isotype control at different concentrations, antibody removed, then 100 nM FcsFNDC4 or Fc for 40 min on ice; anti-human IgG-PE; only the binder purified
[5] = molecular target: T3, human GPR116 with C-terminal fused FLAG, stably overexpressed (human); assay: flow cytometry on cells; saturation binding of FcsFNDC4 or Fc control on HEK293T cells with stable human GPR116-FLAG OE or mock cells; also in excess of sFNDC4 (1 mM) for non-specific binding; 4 °C, PBS with 3% FBS; anti-human IgG-PE; Kd from specific binding; only the binder purified

Row | binding [1] | binding [2] | binding [3] | binding [4] | binding [5] | Binder
1 | no binding (tested: 100 nM) | binds | no binding (tested: 100 nM) | binds | – | 6xHis-Fc-sFNDC4 fusion protein (extracellular part of mouse FNDC4 fused with human IgG Fc) (Fc fusion, extracellular part of mouse FNDC4 (sFNDC4), stated as aa 40-160; also called FcFNDC4; FcsF4; not shown: 6xHis, N-terminal, kept; Fc (human IgG), N-terminal, kept) RPPSPVNVTVTHLRANSATVSWDVPEGNIVIGYSISQQRQNGPGQRVIREVNTTTRACALWGLAEDSDYTVQVRSIGLRGESPPGPRVHFRTLKGSDRLPSNSSSPGDITVEGLDGERPLQTGE
2 | – | – | – | – | binds | untagged sFNDC4 (non-Fc-fused FNDC4, aa40-160) (domain or fragment, UniProt Q3TR08 40-160) ADRPPSPVNVTVTHLRANSATVSWDVPEGNIVIGYSISQQRQNGPGQRVIREVNTTTRACALWGLAEDSDYTVQVRSIGLRGESPPGPRVHFRTLKGSDRLPSNSSSPGDITVEGLDGERP
